# Changes are numbered by the printed parent chain; changes in the protein carry UniProt numbers. Some of the results follow.
# B1: GCACCUU (DNA:RNA)
# RNA: GGGAGACCGGAAUUCAGAUUGUCCGCACCUUUUAAAUCCCGUCGUAGCCACCA
# DNA 1: CAATCTGAATTCCGGTCTCCC
# DNA 2: TGGTGGCTACGACGGGATT
# B2: AGGACGU (DNA:RNA)
# RNA: B1 RNA with G25A, C26G, A27G, C28A, U30G
# DNA 1: CAATCTGAATTCCGGTCTCCC
# DNA 2: TGGTGGCTACGACGGGATT
# B3: GGGGCCC (DNA:RNA)
# RNA: B1 RNA with C26G, A27G, C28G, U30C, U31C
# DNA 1: CAATCTGAATTCCGGTCTCCC
# DNA 2: TGGTGGCTACGACGGGATT
# B4: GUCCUUG (DNA:RNA)
# RNA: B1 RNA with C26U, A27C, C29U, U31G
# DNA 1: CAATCTGAATTCCGGTCTCCC
# DNA 2: TGGTGGCTACGACGGGATT
# B5: GCGUUGA (DNA:RNA)
# RNA: B1 RNA with A27G, C28U, C29U, U30G, U31A
# DNA 1: CAATCTGAATTCCGGTCTCCC
# DNA 2: TGGTGGCTACGACGGGATT
# B6: CGGUCGU (DNA:RNA)
# RNA: B1 RNA with G25C, C26G, A27G, C28U, U30G
# DNA 1: CAATCTGAATTCCGGTCTCCC
# DNA 2: TGGTGGCTACGACGGGATT
# B7: UAAAUUU (DNA:RNA)
# RNA: B1 RNA with G25U, C26A, C28A, C29U
# DNA 1: CAATCTGAATTCCGGTCTCCC
# DNA 2: TGGTGGCTACGACGGGATT
# B8: CGGUUAG (DNA:RNA)
# RNA: GGGAGACCGGAAUUCAGAUUGUCCCGGUUAGUUAAAUCCCGUCGUAGCCACCA
# DNA 1: CAATCTGAATTCCGGTCTCCC
# DNA 2: TGGTGGCTACGACGGGATT
# B9: AAGCGUC (DNA:RNA)
# RNA: B1 RNA with G25A, C26A, A27G, C29G, U31C
# DNA 1: CAATCTGAATTCCGGTCTCCC
# DNA 2: TGGTGGCTACGACGGGATT
# B10: CCGAGAC (DNA:RNA)
# RNA: B8 RNA with G26C, U28A, U29G, G31C
# DNA 1: CAATCTGAATTCCGGTCTCCC
# DNA 2: TGGTGGCTACGACGGGATT
# B11: GAAACCG (DNA:RNA)
# RNA: B1 RNA with C26A, C28A, U30C, U31G
# DNA 1: CAATCTGAATTCCGGTCTCCC
# DNA 2: TGGTGGCTACGACGGGATT
# B12: UAGACAC (DNA:RNA)
# RNA: B8 RNA with C25U, G26A, U28A, U29C, G31C
# DNA 1: CAATCTGAATTCCGGTCTCCC
# DNA 2: TGGTGGCTACGACGGGATT
# B13: UAGCGCC (DNA:RNA)
# RNA: B8 RNA with C25U, G26A, U28C, U29G, A30C, G31C
# DNA 1: CAATCTGAATTCCGGTCTCCC
# DNA 2: TGGTGGCTACGACGGGATT
# B14: ACAGGUU (DNA:RNA)
# RNA: B1 RNA with G25A, C28G, C29G
# DNA 1: CAATCTGAATTCCGGTCTCCC
# DNA 2: TGGTGGCTACGACGGGATT
# B15: UUGGUGG (DNA:RNA)
# RNA: B8 RNA with C25U, G26U, U28G, A30G
# DNA 1: CAATCTGAATTCCGGTCTCCC
# DNA 2: TGGTGGCTACGACGGGATT
# B16: GAGGGCU (DNA:RNA)
# RNA: B1 RNA with C26A, A27G, C28G, C29G, U30C
# DNA 1: CAATCTGAATTCCGGTCTCCC
# DNA 2: TGGTGGCTACGACGGGATT
# B17: CAUCGUU (DNA:RNA)
# RNA: B1 RNA with G25C, C26A, A27U, C29G
# DNA 1: CAATCTGAATTCCGGTCTCCC
# DNA 2: TGGTGGCTACGACGGGATT
# B18: GUCCUAA (DNA:RNA)
# RNA: B8 RNA with C25G, G26U, G27C, U28C, G31A
# DNA 1: CAATCTGAATTCCGGTCTCCC
# DNA 2: TGGTGGCTACGACGGGATT
# B19: UCAUUCU (DNA:RNA)
# RNA: B1 RNA with G25U, C28U, C29U, U30C
# DNA 1: CAATCTGAATTCCGGTCTCCC
# DNA 2: TGGTGGCTACGACGGGATT
# B20: CGCCGGU (DNA:RNA)
# RNA: B8 RNA with G27C, U28C, U29G, A30G, G31U
# DNA 1: CAATCTGAATTCCGGTCTCCC
# DNA 2: TGGTGGCTACGACGGGATT
# Target: T1, RBFOX1 RRM (Homo sapiens, UniProt Q9NWB1 109-208)
# T1 sequence: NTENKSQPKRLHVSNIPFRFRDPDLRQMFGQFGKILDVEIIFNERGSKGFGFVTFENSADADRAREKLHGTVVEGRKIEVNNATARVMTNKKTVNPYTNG
# Test: EMSA; HiTS-Eq, 1 nM pool, 10 min; buffer printed only for the single-RNA assays: 10 mM Tris pH 7.5, 150 mM NaCl, 3.4 mM EDTA, 0.001% NP-40, 30 C
# Conditions: tags: His6 N-terminal (pET28a); label: 5' 32P
# Method in brief: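 A pool of RNA with 7 randomized nucleotides, 5′-radiolabelled and with DNA-annealed flanks, was equilibrated at 1 nM for 10 min in 50 µL with purified RbFox RRM, wild type or mutant, across increasing protein concentrations. Free RNA was separated by 8% native PAGE, excised, reverse-transcribed, barcoded by PCR and sequenced. Relative association constants were obtained from read-count changes of each RNA species versus the control reaction and normalised to the cognate motif.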
row,Binder,binding signal
1,B1,0.00757 KA relative to UGCAUGU
2,B2,0.0265 KA relative to UGCAUGU
3,B3,0.0409 KA relative to UGCAUGU
4,B4,0.0114 KA relative to UGCAUGU
5,B5,0.0205 KA relative to UGCAUGU
6,B6,0.0131 KA relative to UGCAUGU
7,B7,0.00806 KA relative to UGCAUGU
8,B8,0.0127 KA relative to UGCAUGU
9,B9,0.00965 KA relative to UGCAUGU
10,B10,0.011 KA relative to UGCAUGU
11,B11,0.00268 KA relative to UGCAUGU
12,B12,0.00295 KA relative to UGCAUGU
13,B13,0.00963 KA relative to UGCAUGU
14,B14,0.00665 KA relative to UGCAUGU
15,B15,0.0195 KA relative to UGCAUGU
16,B16,0.0208 KA relative to UGCAUGU
17,B17,0.00523 KA relative to UGCAUGU
18,B18,0.00546 KA relative to UGCAUGU
19,B19,0.00326 KA relative to UGCAUGU
20,B20,0.00989 KA relative to UGCAUGU

# Reference: paper PMC9911399, “Two distinct binding modes provide the RNA-binding protein RbFox with extraordinary sequence specificity”
